Conditions: presence of 3CLpro or PLpro, compared with GSH alone

In the case of `N[C@@H](CCC(=O)N[C@@H](CS)C(=O)NCC(=O)O)C(=O)O` [GSH, reduced glutathione], the “stability of GSH” value is reported as “slightly stabilized”.

— publication PMC3299889 (Analytical Biochemistry, 2012)
